In ChEMBL document CHEMBL4888484, “Replenishing the malaria drug discovery pipeline: Screening and hit evaluation of the MMV Hit Generation Library 1 (HGL1) against asexual blood stage Plasmodium falciparum ,using a nano luciferase reporter read-out” (2022):
Hit rate of the full screen: of about 4,800 compounds, about 410 (8.5%) showed an effect of 50% or more. Some of the results follow.

The molecules below were run on Plasmodium falciparum (assay: Confirmatory screen in NF54 pLDH assay, in single point, at 2uM, 72h). Conditions: timepoint 72 hour.
Assay type: functional, Erythrocyte

| SMILES | % Inhibition [%] |
| --- | --- |
| COc1ccc(-c2nnc(COc3ccc(-c4ccccc4)cc3)s2)cc1 | -10 |
| O=C(OCC(=O)N1CCCc2ccccc21)c1nccc2ccccc12 | 7 |
| CC[C@H]1CCCCN1c1ccc2nnnn2n1 | 9 |
| CCN1CCN(C2CCN(c3ncc(F)c(OC)n3)CC2)CC1 | 50 |
| Fc1ccc(Nc2nc3c(s2)CCCC3)cc1 | -18 |
| Cc1coc(-c2cc(NC(=O)N(CCO)CC(F)F)ccc2C)n1 | 3 |
| CC(C)c1cc(C(C)C)c(S(=O)(=O)N[C@@H](Cc2ccccc2)c2ccc(-c3ccccc3)cc2)c(C(C)C)c1 | -14 |
| N#CC1(C#N)C(c2ccc(Cl)cc2)C1(C#N)C#N | 19 |
| Cc1ccc(S(=O)(=O)NCC(=O)N2CCC[C@H]2c2ccc3c(c2)OCCCO3)cc1C | 1 |
| COc1ccc(C(=O)C[n+]2nc(CNc3ccc(Br)cc3)n3c2CCCCC3)cc1 | 82 |
| O=C1C[C@H](C(=O)NC2(c3cc(C(F)(F)F)ccc3Cl)CC2)CN1 | -11 |
| COc1ccc(Nc2nc(C(C(F)(F)F)(C(F)(F)F)C(F)(F)F)nc(C(C(F)(F)F)(C(F)(F)F)C(F)(F)F)n2)cc1 | 11 |
| Cc1oc(C)c(C(=O)N2CCc3cnccc32)c1C | -13 |
| COc1cccc(Oc2nc(N3CCN(C)CC3)nc3c2CN(C(=O)Nc2ccccc2)CC3)c1 | 10 |
| Cc1ncoc1C(=O)N1CC(F)(F)C[C@H]1Cn1cc(C(=O)N2CCOCC2)nn1 | 4 |
| CCOCC(=O)Nc1ccc(C(C)=O)c(Cl)c1 | -7 |
| Cc1c(S(=O)(=O)N2CC3CN(c4ccccc4)CC3C2)cnn1C (stereo not drawn) | 10 |
| O=C(Nc1cccc2cccnc12)N1CCOCC1CC(O)c1cccs1 (stereo not drawn) | 10 |
| Cc1sc(NC(=O)c2ccccc2Cl)nc1-c1ccc2c(c1)NC(=O)[C@H](C)O2 | 12 |
| COC(=O)c1cc(Cl)c(Cl)cc1N | 1 |
| O=C1CCc2cc(NC(=O)[C@@H]3Cc4ccccc4C(=O)O3)ccc2N1 | 14 |
| COc1cccc2c1OCC(=O)N([C@@H](C)c1ccccc1)C2 | -12 |
| O=C(Cc1cccs1)Nc1ncc(Cc2ccccc2)s1 | 7 |
| CC1(C)c2ccccc2CCN1C(=O)CCc1ncc(-c2ccccc2)o1 | 8 |
| COc1cc2c(cc1OC)CN(C(=O)c1cccc(N3C(=O)C(C)(C)CS3(=O)=O)c1)CC2 | 3 |
| Cc1c(C)n(CCc2c[nH]c3ccccc23)ccc1=O | 11 |
| O=C(Cc1ccc(N(Cc2cccc(F)c2)C(=O)C2CCCC2)cc1)NCCN1CCCCC1 | 43 |
| O=C(NCCN1CCCCC1)[C@H]1CCCN(c2nc3cccnc3n(Cc3ccccc3)c2=O)C1 | -4 |
